# Measured values reported in the supplement of paper PMC11417369.
# The list shows a part of the results.
# Tested on: PfSIP2 AP2 domain 1 (GST-tagged)
# Experiment: gcPBM binding intensity (ln(normalized median fluorescence intensity)); higher = stronger DNA binding
# How it was run: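 Using an Agilent 4 × 180k array, primer-extended double-stranded 36-bp intergenic genomic probes and negative controls were exposed for 1 h to GST-fused P. falciparum DNA-binding domains expressed in E. coli. Binding was carried out in 1× PBS with 1% milk, 0.2 mg/ml BSA, 0.5% salmon testes DNA and 0.03% Triton X-100, and protein was detected with Alexa488 anti-GST antibody and a 488 nm scan. Binding intensity is the highest Masliner-normalised natural-log median intensity across replicate spots of either probe orientation.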
row,Sequence,gcPBM binding intensity (ln)
1,TATTTTCCATGAGGTAGTACACATTAAAAAATCGTT [XGTACX_site6887],7.03
2,TTTCTTAAACCGTACAGTACACACCTTTATAATGTT [XGTACX_site434],7.01
3,TAATATTAAAAAGAGACACACAAAAATATTAAAAAA [CACACA_site3120],7.02
4,TTACACCTTAGGATCTGTACAAATATATGACAAATC [XGTACX_site4333],7
5,AAGGTTTTGGGTTTTAATTAATTTAATATGATTATA [XGTACX_negctrl_site147],6.84
6,CGACTTTTAAAATATACACACATATAAATAAATATA [CACACA_site6523],7.11
7,TTACAATATAATAAATGTACATATAACAAATATATA [XGTACX_site2199],7.1
8,TTTTTTTTTTTTTGTAGTACATACTATTTTATTAAT [XGTACX_site950],7.01
9,AGAATTATATACACAAGTACATAATGACATATATAT [XGTACX_site5617],7.07
10,TAGATGTATTTTTAAAGTACTTTTTAATATATAATC [XGTACX_site1431],7.15
11,TAAAAAATTATATTCACACACATACACATATATATA [CACACA_site545],7.2
12,TGTATATCACATGAGAGGTGGAGATGGGGATAAATA [CACACA_negctrl_site1148],6.83
13,ATACAATTCTTACATTGTACTTTTTTTTTTTATCAC [XGTACX_site6327],6.96
14,TACAACCTTTAGACAAGTACAAGAATTATATGTGGC [XGTACX_site4581],7.25
15,ACAAAATATATAGACACACAAACACAAATATGTTTT [CACACA_site3016],7.04
16,TTAATATGAATTATTACATGCAACTAAATATATTTA [TGCATGCA_site490],6.99
17,TAATACAGATTAAAAGGTACACTTATTTGGTATTAT [XGTACX_site4966],6.95
18,TCTATACCTATTCTTACACACATATGTATAAATATA [CACACA_site6407],7.3
19,TTGACAACTCTTTTCATACACACAAAAAAAAAAAAA [CACACA_site2362],6.98
20,ACTAAAAAAATAAACACACAGATTTATATAATATAT [CACACA_site4884],6.97
21,TATCTTTATATATAGTGTACACATTAAACAAATCTC [XGTACX_site7381],7.09
22,TATTAATGATAAGAATATTTTATATGATACATGCAT [CACACA_negctrl_site923],6.7
23,TATAAATAAATATGTACACACATATATACCTTTCAT [CACACA_site7291],7.04
24,AATAATTAACAAAAAAAAAAAAAAAAAAAAAAAAAA [GTGCAC_negctrl_site255],6.85
